According to the supplement of paper PMC10126150:
Values marked as one replicate rest on one cluster of the flow cell; about a third of the high ones do not repeat.
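Note: ATP exposure 15 min at 22 °C before imaging.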

Each sequence was assayed on ATP (assay: switch fluorescence ratio, 500 uM ATP over buffer (Cy3 cluster intensity, sum of 5 cycles each) (fold (ratio)); higher = stronger signal-on switching upon ATP binding; sequences stand for … in TCGTCGGCAGCGTCAGATGTGTATAAGAGACAGTTTTTTTTTTTTTTTTTTTTTTTTT…TC). Conditions: aptamer strand: ATP DNA aptamer (quencher-CACCTGGGGGAGTATTGCGGAGGAAGG + anchor), 100 nM annealed; ATP concentration: 500 uM; one replicate.
How it was run: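 The quencher-labelled ATP aptamer, at 100 nM, was annealed to Cy3-labelled switching-strand clusters on a modified Illumina MiSeq flow-cell. The clusters were imaged in selection buffer, then after 15 min with 500 uM ATP at 22 °C, and this buffer/ATP cycle ran five times with NaOH stripping and re-annealing between runs. Per-cluster fluorescence ratios, summed target-cycle over summed buffer-cycle Cy3 intensity, were averaged per switch-domain sequence. Clusters outside 100-1000 RFU were excluded.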
Work on GCTACGGCCG yielded a switch fluorescence ratio of 1. GGTCACATCT was tested, and the switch fluorescence ratio was 1.02. GAACTGAGTG showed a switch fluorescence ratio of 1.01. Sequence GACCTGCGGC has a switch fluorescence ratio of 1.01. AAAGTGATA was tested, and the switch fluorescence ratio was 1.05. For TTACGCTTTG, the switch fluorescence ratio was 0.976. In the case of CGTTTCACGA, the switch fluorescence ratio is reported as 1.03. CATGATAAAT was tested, and the switch fluorescence ratio was 1.02. Work on TAGGTGGATA yielded a switch fluorescence ratio of 1.04. CAGAATTATT was tested, and the switch fluorescence ratio was 1.05. With TCTAAGATGC the switch fluorescence ratio was 1.22. CGGATGGACC was tested, and the switch fluorescence ratio was 0.94. In the case of TACCAGTGTT, the switch fluorescence ratio is reported as 1.03. CCGGCTGTGG was tested, and the switch fluorescence ratio was 1.06. For TTGGGTAGTT, the switch fluorescence ratio was 0.966. Work on GATCCCACGT yielded a switch fluorescence ratio of 1.05. For AGGGATGTAT, the switch fluorescence ratio was 1.02. GAGTCAACAT was tested, and the switch fluorescence ratio was 1. ATGTCGCTGG gave a switch fluorescence ratio of 0.964. In the case of CGGTGAGGCA, the switch fluorescence ratio is reported as 0.98. With TAATCTGTGG the switch fluorescence ratio was 0.999. In the case of ATCTGTAAA, the switch fluorescence ratio is reported as 0.992. Work on ACGTCCAGGC yielded a switch fluorescence ratio of 1.07. TAACACTCAT gave a switch fluorescence ratio of 1. GTGACAAGGG gave a switch fluorescence ratio of 0.974. For TATCGGCGC, the switch fluorescence ratio was 1.02. In the case of GGGCCTTCCC, the switch fluorescence ratio is reported as 1.15. Sequence GCCGAATCTT has a switch fluorescence ratio of 0.99. ATGATGCTTT showed a switch fluorescence ratio of 1.01. ATTAAGACAC gave a switch fluorescence ratio of 1.11. With TTGGCTCTGC the switch fluorescence ratio was 0.967. Sequence TTTCCAACGG has a switch fluorescence ratio of 1.58. For CCTGTAAACT, the switch fluorescence ratio was 1.06. With ACAGTCTCAT the switch fluorescence ratio was 1.03. TACCGATGTG showed a switch fluorescence ratio of 1.03. Sequence CAAGATGTTA has a switch fluorescence ratio of 1.02. GCTAGCTGGA was tested, and the switch fluorescence ratio was 1.01. With CGAGTAACTC the switch fluorescence ratio was 1.02. CCTATATAAG gave a switch fluorescence ratio of 1.03. For ATGCACGCAT, the switch fluorescence ratio was 1.01. In the case of GGATGTCACG, the switch fluorescence ratio is reported as 1. With CTCGGTGTTC the switch fluorescence ratio was 0.942. ATACACGAAA gave a switch fluorescence ratio of 1.23. With ATATTTCACG the switch fluorescence ratio was 0.992. With GGTGTGGTCG the switch fluorescence ratio was 0.975. Sequence TAAGTCTGG has a switch fluorescence ratio of 1.07. GAATGTTCAT gave a switch fluorescence ratio of 0.965. Sequence TAAAACTTGA has a switch fluorescence ratio of 1. In the case of ATATATGGG, the switch fluorescence ratio is reported as 0.958. TTAACTGGAT was tested, and the switch fluorescence ratio was 0.965. With GCATGGGAGT the switch fluorescence ratio was 0.983. TCTGTCAGTA gave a switch fluorescence ratio of 1.01. In the case of TAAGAATCTT, the switch fluorescence ratio is reported as 0.985. TGACGTCGGA gave a switch fluorescence ratio of 0.944. In the case of GCGAGGTTTG, the switch fluorescence ratio is reported as 0.932. Work on AGACAATTT yielded a switch fluorescence ratio of 0.97. ACGGTCCTGA gave a switch fluorescence ratio of 0.972. In the case of CCGGTAGTGG, the switch fluorescence ratio is reported as 1.05. Work on CGATCAATAG yielded a switch fluorescence ratio of 2.73. GAGACTTGAG was tested, and the switch fluorescence ratio was 0.999. With CTCCAAACAT the switch fluorescence ratio was 1.3. Work on GGCTCGTACA yielded a switch fluorescence ratio of 1.01. TGACTAAATT showed a switch fluorescence ratio of 1.06. For CCTGTTATAG, the switch fluorescence ratio was 1.1. GTCACCTTTC was tested, and the switch fluorescence ratio was 1.93. CCGAAACGTT was tested, and the switch fluorescence ratio was 1.17. Sequence ACAGAAGGAA has a switch fluorescence ratio of 1.06. With CTTTTGGGGC the switch fluorescence ratio was 0.99. In the case of TCTGCGGGTC, the switch fluorescence ratio is reported as 1.15. ATAAGGGCGG gave a switch fluorescence ratio of 0.982. For GTTAAAGGC, the switch fluorescence ratio was 0.948. With AGCTGAGGGT the switch fluorescence ratio was 0.946. Work on GCGGTTTGCC yielded a switch fluorescence ratio of 0.94. GGGGCAGTGC was tested, and the switch fluorescence ratio was 1.17. Sequence GCCATTTCAG has a switch fluorescence ratio of 0.959. ACATCCTTGG was tested, and the switch fluorescence ratio was 1.03. AATCGTCTAG was tested, and the switch fluorescence ratio was 1. For GGGGAGATAG, the switch fluorescence ratio was 1.02. Work on AGAAGCGAGC yielded a switch fluorescence ratio of 0.904. With TAGCAAAATC the switch fluorescence ratio was 1.36. In the case of TCTGGGCAG, the switch fluorescence ratio is reported as 1.06. AGGGAAATCA showed a switch fluorescence ratio of 0.987. Work on GACGCTGCAT yielded a switch fluorescence ratio of 2.44. For TGTGGGCCGA, the switch fluorescence ratio was 0.982. Work on TCATTAGGTA yielded a switch fluorescence ratio of 1. Sequence AGACCCAGGT has a switch fluorescence ratio of 1.69. GCCTGACATT gave a switch fluorescence ratio of 1.02. Sequence AGGATAGCAT has a switch fluorescence ratio of 1.02. With TCCAGGGCTG the switch fluorescence ratio was 1.07. Sequence TGTAACGGTA has a switch fluorescence ratio of 1. CAGAACGTGA gave a switch fluorescence ratio of 1.14. AATCTTCCTG gave a switch fluorescence ratio of 1.43. Work on AAACCTTGGC yielded a switch fluorescence ratio of 1.27. ATCCCAAATC showed a switch fluorescence ratio of 1.15. GATGCACTTA showed a switch fluorescence ratio of 1.02. With CAGGAAAGCC the switch fluorescence ratio was 0.987. With ATAGTAGGAT the switch fluorescence ratio was 0.991. Sequence CCGAGCTTGT has a switch fluorescence ratio of 1.67. For GCTTTTGACC, the switch fluorescence ratio was 1. Sequence CGCCTGCGCC has a switch fluorescence ratio of 1.06. For AGGGGGATT, the switch fluorescence ratio was 1.01. Sequence TGTCCGCTGG has a switch fluorescence ratio of 1.29. TGGGGAGATG was tested, and the switch fluorescence ratio was 0.991. TGGGTATTTA was tested, and the switch fluorescence ratio was 1.08. TTTGGCGCTC was tested, and the switch fluorescence ratio was 1. AGCAACTCTG gave a switch fluorescence ratio of 1.06. CTAGCGAGGA showed a switch fluorescence ratio of 1.05. Sequence ACCGGAGCTG has a switch fluorescence ratio of 1.51. Work on CGTCACCCTA yielded a switch fluorescence ratio of 1.06. CCAGCCCCTC gave a switch fluorescence ratio of 1.17. TCCCCTCCAG was tested, and the switch fluorescence ratio was 1.36. With TTCGGTCT the switch fluorescence ratio was 0.982. With CAGCTTAGTT the switch fluorescence ratio was 0.994. With GCCTAACATT the switch fluorescence ratio was 0.997. In the case of CAGTGAAGGT, the switch fluorescence ratio is reported as 0.977. For CAAAGTCTAT, the switch fluorescence ratio was 1.01. TGATGTTTTA showed a switch fluorescence ratio of 0.975. CGTAAGCCAT was tested, and the switch fluorescence ratio was 0.963. With TGGAACTGAA the switch fluorescence ratio was 0.977. Sequence GAAGATATGG has a switch fluorescence ratio of 0.993. In the case of TGGCTAGGTA, the switch fluorescence ratio is reported as 1.03. TAAGTTACAT was tested, and the switch fluorescence ratio was 1.01. For TGTGCTAGCC, the switch fluorescence ratio was 1.04. For TAAACATTAA, the switch fluorescence ratio was 1.05. For ATGTTCTTC, the switch fluorescence ratio was 0.979. Work on GTAGGTCGTT yielded a switch fluorescence ratio of 0.976. With GTGACTCGG the switch fluorescence ratio was 0.984. In the case of GCGTGTGTAT, the switch fluorescence ratio is reported as 1. Sequence GATGTATTGT has a switch fluorescence ratio of 0.989. For GCTATAGTGC, the switch fluorescence ratio was 0.979. Work on CGTTAGGAGA yielded a switch fluorescence ratio of 0.986. Sequence ATGGGTAGT has a switch fluorescence ratio of 1.01. For TCCGTTACTG, the switch fluorescence ratio was 1.1. In the case of AATTTAAACT, the switch fluorescence ratio is reported as 1.05. Work on ATGCGCCGGG yielded a switch fluorescence ratio of 0.973. GGGAATCAGA gave a switch fluorescence ratio of 0.962. In the case of GTATGGG, the switch fluorescence ratio is reported as 0.984. In the case of CGGCGTTA, the switch fluorescence ratio is reported as 1. In the case of GTGTCTGATG, the switch fluorescence ratio is reported as 0.998. For TATTATTACT, the switch fluorescence ratio was 1. In the case of TGCTTATTGC, the switch fluorescence ratio is reported as 1. GCTTTCGGTG gave a switch fluorescence ratio of 1.03. CAGGTATCGT gave a switch fluorescence ratio of 1. With GCGTACTGGT the switch fluorescence ratio was 0.988. ACGGCAATT was tested, and the switch fluorescence ratio was 1.4. With ATGGTGTTGG the switch fluorescence ratio was 1.02. CCGTTTGTTG showed a switch fluorescence ratio of 1.04. Sequence ATGTTCATCT has a switch fluorescence ratio of 0.946. For CGGCGGATGG, the switch fluorescence ratio was 1.04. ACACGTGCCA showed a switch fluorescence ratio of 0.993. CGTTGATGTT was tested, and the switch fluorescence ratio was 0.965. Sequence TCCCTTTTTT has a switch fluorescence ratio of 1. For CGACGAGGGT, the switch fluorescence ratio was 1.06. CAGGTCATC was tested, and the switch fluorescence ratio was 0.982. For CTTGTGCCGG, the switch fluorescence ratio was 1.02. For GGAGGAGGAG, the switch fluorescence ratio was 0.905. GGGTAACGAA gave a switch fluorescence ratio of 1.02. Work on AACTATCTT yielded a switch fluorescence ratio of 0.959. Sequence GTGTATGTGC has a switch fluorescence ratio of 0.936. In the case of GGATCACCTA, the switch fluorescence ratio is reported as 1. With AAGTTTTTAA the switch fluorescence ratio was 0.986. For TCGGGACCTG, the switch fluorescence ratio was 1.04. Sequence GTATGTTTTT has a switch fluorescence ratio of 0.979. In the case of CCTAGCATTT, the switch fluorescence ratio is reported as 1.62. In the case of CGCAAACTTG, the switch fluorescence ratio is reported as 1.02. Work on GCGTCGCGCT yielded a switch fluorescence ratio of 0.998. GAAAGCTATA was tested, and the switch fluorescence ratio was 1.07. Work on TAAGCATAGC yielded a switch fluorescence ratio of 1.04. Sequence TTTGGAGCAT has a switch fluorescence ratio of 1.45. In the case of TTTGCCTAAA, the switch fluorescence ratio is reported as 0.974. TGCTTTCTG gave a switch fluorescence ratio of 1.02. GAAGCCCGGG was tested, and the switch fluorescence ratio was 0.96. CAAGAGCGGG gave a switch fluorescence ratio of 0.999. For GCGGGATTTG, the switch fluorescence ratio was 0.974. For CGTATATAGA, the switch fluorescence ratio was 1.01. CGGCGATTGT gave a switch fluorescence ratio of 0.968. Sequence CAAGTACCAG has a switch fluorescence ratio of 1.27. With AGACTAGAG the switch fluorescence ratio was 0.97. Work on CATTAGGTAC yielded a switch fluorescence ratio of 1.03. With AGTGTGCTTG the switch fluorescence ratio was 0.982. Sequence TGGAGTGCTC has a switch fluorescence ratio of 1.04. For CCATCTGTTT, the switch fluorescence ratio was 1.03. AGCTTTGTGG showed a switch fluorescence ratio of 0.985. TTTCAAGTCT gave a switch fluorescence ratio of 0.979. CCAGGGGGTA showed a switch fluorescence ratio of 1.19. TGGTAATT showed a switch fluorescence ratio of 0.996. With GTGCTGTTTC the switch fluorescence ratio was 0.959. GTGTGCTTTC was tested, and the switch fluorescence ratio was 1.01. For TTCTTTAACG, the switch fluorescence ratio was 0.981. Work on TTTAGGCATA yielded a switch fluorescence ratio of 0.971. In the case of AAAGACCCAA, the switch fluorescence ratio is reported as 1.03. CGGGATGGGC gave a switch fluorescence ratio of 1.02. GAGGGTTGTC was tested, and the switch fluorescence ratio was 0.967. In the case of AGAGGCGATC, the switch fluorescence ratio is reported as 1.04. TATGTTGAGC was tested, and the switch fluorescence ratio was 1.01. In the case of CTAGTGTTCC, the switch fluorescence ratio is reported as 1.04. ACTTTTGACA gave a switch fluorescence ratio of 1.01. With ATAGGCGAGT the switch fluorescence ratio was 1.03. GCACATAGAA gave a switch fluorescence ratio of 1.07. In the case of AGCTGATAG, the switch fluorescence ratio is reported as 1.09. ATTAGACGCT showed a switch fluorescence ratio of 1.04.
